# Reference: PubChem BioAssay (NCATS)
# The shares of active, inactive and inconclusive entries below differ from those in the screen. Entries that show only a call come without a potency. For some assays here: Potencies of inconclusive entries are doubtful fits and often do not repeat. Activity calls are given as the source filed them. Unless noted, calls follow the shape of the dose curve; as a rule, active = well fitted curve in the direction sought with a large enough effect; inconclusive = small, poorly fitted or top-dose-only effect, or another doubt; inactive = no such curve, though single readings can be large; an effect the other way counts as inactive or inconclusive.
# Legend:
# [1] = Primary qHTS for inhibitors of nuclear receptor binding SET domain protein 2 (NSD2) in an isogenic RCH-ACV NSD2 p.E1099K mutant (9B) (AID 1645876); also: nearly all actives have a fitted effect of over 70% in size
# NIH3T3 = assay: Cytotoxic Profiling of Annotated Libraries Using Quantitative High-Throughput Screening (AID 1296008); settings: Five cell lines viability, CellTiter-Glo ATP luminescence, 48-72 h; max response: hits give low values; also: nearly all actives have a fitted effect of over 60% in size
# In short: (§1)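 Cytotoxicity was measured as CellTiter-Glo ATP luminescence, read after 10 min at room temperature. Compound treatment of the cells lasted 48 or 72 hr at 37 degrees Celsius in a qHTS format.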
# [2] = qHTS Assay for Identifying Gametocytocidal Compounds (AID 743244); also: potency is read from the fitted curve at half-maximal effect; settings: P. falciparum 3D7 stage III-V gametocytes, alamarBlue, 72 h; max response: hits give low values
# In short: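 Late gametocytes (III–V), P. falciparum 3D7; 72 h drug, then 24 h alamarBlue; resazurin reduction read by fluorescence.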
# [3] = P-glycoprotein substrates identified in KB-8-5-11 adenocarcinoma cell line, qHTS therapeutic library screen (AID 1346987); also: potency is read from the fitted curve at half-maximal effect; nearly all actives have a fitted effect of over 65% in size
# In short: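 KB-8-5-11, a colchicine-selected P-gp-overexpressing KB-3-1 subline, was grown without colchicine for the assay. Cells were seeded at 500 cells/well, dosed in concentration-response and incubated 72 h at 37 degree C, 5% CO2. Viability was read by CellTiter-Glo luminescence.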
# KB-3-1 = assay: Cytotoxic Profiling of Annotated Libraries Using Quantitative High-Throughput Screening (AID 1296008); settings: Five cell lines viability, CellTiter-Glo ATP luminescence, 48-72 h; max response: hits give low values; also: nearly all actives have a fitted effect of over 60% in size
# In short: as §1
# astro = assay: Drug repurposing screens with cells derived from glioblastoma tumor samples (AID 1345199); settings: viability, ATP luminescence, 48 h; series mostly up to 45.9 µM; also: nearly all actives have a fitted effect of over 40% in size; also: potency is read from the fitted curve at half-maximal effect
# In short: (§2)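 Four patient lines of CD133+ GBM neurospheres were screened at several concentrations; hits were retested in those lines plus three slower-growing GBM lines, using 48-hour treatment and ATP-based viability.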
# [4] = qHTS of pediatric cancer cell lines to identify multiple opportunities for drug repurposing: Primary screen for SK-N-MC cells (AID 1347093); settings: SK-N-MC viability, CellTiter-Glo luminescence, 48 h; activity change, negative = cytotoxic: at 46 µM (top of the series)
# In short: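 Metabolically active cells were quantified by ATP-dependent luminescence (CellTiter-Glo, 15 min at room temperature) following 48 h treatment. Cells had been plated at 500-1,000 per well and settled for 5 h beforehand.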
# [5] = qHTS of pediatric cancer cell lines to identify multiple opportunities for drug repurposing: Primary screen for BT-37 cells (AID 1347094)
# In short: (§3)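 ATP-based luminescence (CellTiter-Glo) quantifies viability after a 48-hour exposure. Compounds are dosed across 8 or 11 final concentrations; DMSO and 2.3 µM bortezomib serve as controls.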
# [6] = qHTS of pediatric cancer cell lines to identify multiple opportunities for drug repurposing: Primary screen for NB-EBc1 cells (AID 1347095)
# In short: as §3
# [7] = qHTS of pediatric cancer cell lines to identify multiple opportunities for drug repurposing: Primary screen for SK-N-SH cells (AID 1347098); settings: SK-N-SH viability, CellTiter-Glo luminescence, 48 h; activity change, negative = cytotoxic: at 57 µM (top of the series);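 also: DMSO served as neutral control and bortezomib at 2.3 µM as positive control; nearly all actives have a fitted effect of over 65% in size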
# In short: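 Cells (500-1,000/well) rested 5 h, then received compounds for 48 h; metabolically active cells were measured by CellTiter-Glo luminescence. Final concentrations spanned up to 46 µM (MIPE, 11-point) or 0.59 nM-46 µM (NPC, 8-point) in primary screens, 11-point in follow-ups.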
# [8] = qHTS of pediatric cancer cell lines to identify multiple opportunities for drug repurposing: Primary screen for NB1643 cells (AID 1347099); also: nearly all actives have a fitted effect of over 50% in size
# In short: as §3
# [9] = qHTS of pediatric cancer cell lines to identify multiple opportunities for drug repurposing: Primary screen for control Hh wild type fibroblast cells (AID 1347106);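 also: a drop in luminescence marks cytotoxicity and a rise apparent proliferation; nearly all actives have a fitted effect of over 55% in size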
# In short: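 Viability after 48 h compound treatment at 37C, 500-1,000 cells/well, read as ATP luminescence with CellTiter-Glo. Primary screens used 11-point (MIPE, 0.78 nM-46 µM) or 8-point (NPC, 0.59 nM-46 µM) final concentrations; follow-up screens used 11-point dilutions.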
# [10] = Primary qHTS for small molecule stabilizers of the endoplasmic reticulum resident proteome: Secreted ER Calcium Modulated Protein (SERCaMP) assay (AID 1508630); settings: SH-SY5Y GLuc-SERCaMP (Gaussia luciferase released on ER calcium loss) secretion, thapsigargin, luminescence; activity change, negative = inhibition: at 38.4 µM (top of the series); also: potency is read from the fitted curve at half-maximal effect
# In short: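 GLuc-SERCaMP-expressing SH-SY5Y cells, pretreated 16 h with compound, are challenged with thapsigargin to empty ER calcium stores; after 4 h, coelenterazine is added directly to the medium and luminescence is imaged.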
# [11] = target: Cytochrome P450 2D6 (Homo sapiens) (UniProt P10635); assay: Cytochrome P450 family 2 subfamily D member 6 (CYP2D6) small molecule antagonists: luciferase biochemical (cell-free) qHTS assay (AID 1645840; active = well fitted curve in the direction sought with a large enough effect in the repeat runs; inconclusive = weak or mixed curves; inactive = no such curve, though single readings can be large; an effect the other way counts as inactive or inconclusive; also: nearly all actives have a fitted effect of over 55% in size)
# Chain of UniProt P10635 (P10635 whole entry, looked up): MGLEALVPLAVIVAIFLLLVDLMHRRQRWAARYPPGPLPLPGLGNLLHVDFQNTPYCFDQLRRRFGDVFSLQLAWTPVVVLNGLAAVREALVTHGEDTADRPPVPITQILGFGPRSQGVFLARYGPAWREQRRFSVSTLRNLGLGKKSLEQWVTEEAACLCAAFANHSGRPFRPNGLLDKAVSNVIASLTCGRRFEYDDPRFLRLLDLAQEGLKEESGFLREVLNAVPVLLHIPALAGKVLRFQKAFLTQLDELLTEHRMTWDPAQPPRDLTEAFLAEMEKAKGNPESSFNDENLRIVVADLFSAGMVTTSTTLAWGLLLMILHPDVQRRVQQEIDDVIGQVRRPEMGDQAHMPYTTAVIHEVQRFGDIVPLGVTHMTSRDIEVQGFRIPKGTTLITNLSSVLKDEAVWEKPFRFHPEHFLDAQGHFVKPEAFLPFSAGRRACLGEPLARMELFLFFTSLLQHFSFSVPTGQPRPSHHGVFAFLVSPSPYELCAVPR
# In short: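 P450-Glo luminescent screen: recombinant CYP2D6 enzyme–proluciferin substrate mix preincubated with compound 10 min at room temperature, then NADPH regeneration added for 1 h at room temperature. Detection reagent added for 20 min; luciferin light read as relative luminescence units.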
# WaGa = assay: qHTS assay to identify novel small-molecules to repurpose for Merkel cell carcinoma treatment (AID 1296009); settings: MCC and control cell lines, CellTiter-Glo viability, 72 h; series mostly up to 46 µM; also: nearly all actives have a fitted effect of over 60% in size
# In short: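 72 hr, 37 degree celsius; NPC 8-pt / MIPE 11-pt dose response; compound pinned in DMSO; CellTiter-Glo, 10 min RT, luminescence; normalized to no-cell and DMSO controls.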
# [12] = Primary qHTS for inhibitors of nuclear receptor binding SET domain protein 2 (NSD2) in an RCH-ACV wild type WT cells (2C) (AID 1645877); settings: activity change, negative = cell killing: at 44.9 µM (top of the series); also: potency is read from the fitted curve at half-maximal effect; nearly all actives have a fitted effect of over 70% in size
# [13] = Drug repurposing screens with cells derived from glioblastoma tumor samples (AID 1345199); settings: GBM patient neurospheres viability, ATP luminescence, 48 h; Potency: tumour line A unless noted; activity, negative = cell killing: at 46 µM (top of the series), tumour line A unless noted; also: nearly all actives have a fitted effect of over 40% in size; also: potency is read from the fitted curve at half-maximal effect
# In short: as §2
# Tags tell the direction and shape of the fitted curve.
smiles,measurement,setting,value
CN1C(=O)N[C@@H](Cc2c[nH]c3c(Cl)cccc23)C1=O,Potency,[1],inactive
same,outcome,NIH3T3,inactive
Cc1cc(CC(C)CC(C)(C)C)n(O)c(=O)c1 (configuration not stated) (tested in a mixture with another compound),Potency,[2],"inconclusive: 25.1 µM [inhibitor, single point]"
same,Potency,[3],"inconclusive: 18.4 µM [inhibitor, single point]"
same,max response,KB-3-1,inactive: 29.3%
same,Potency,astro,active: 20 µM
CN(C)CC/C=C1/c2ccccc2COc2ccc(CC(=O)O)cc21,Potency,[4],inactive
same,Potency,[5],inactive
same,Potency,[6],inactive
same,Potency,[7],inactive
same,Potency,[8],inactive
same,Potency,[9],inactive
same,Potency,[10],"inconclusive: 25.1 µM [inhibitor, partial curve, poor fit]"
same,Potency,[11],inactive
same,Potency,WaGa,inactive
CN[C@@H]1[C@@H](O)[C@@H](O[C@@H]2[C@@H](O)[C@H](O[C@H]3O[C@H](CN)[C@@H](O)[C@H](O)[C@H]3O)[C@@H](N)C[C@H]2NC(=O)C(O)CN)OC[C@]1(C)O (some centres not stated),Potency,[12],"inconclusive: 23.5 µM [inhibitor, single point]"
same,Potency,[13],inactive
